Experimental data taken from PubChem BioAssay AID485364 (National Center for Advancing Translational Sciences (NCATS), 2010).
About 11,000 (3.1%) of roughly 360,000 compounds were called active. The shares of active, inactive and inconclusive entries below differ from those in the screen. Calls follow the shape of the dose curve; as a rule, active = well fitted inhibition curve with a large enough effect; inconclusive = small, poorly fitted or top-dose-only effect; inactive = no such curve, though single readings can be large or run the other way. Potencies of inconclusive entries are left out as doubtful fits.

Molecular target: Schistosoma mansoni thioredoxin glutathione reductase (TGR) (UniProt Q962Y6)
Experiment: qHTS Assay for the Inhibitors of Schistosoma Mansoni Peroxiredoxins; also: nearly all actives have a fitted effect of over 60% in size
Conditions: purified TGR, DTNB reduction, TNB absorbance 405 nm; activity change, negative = inhibition: at 114 µM (top of the series) unless noted
Procedure, shortened: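 TGR 20 nM + NADPH 100 uM (dispensed conc.), cpd preinc 15 min RT; start with NADPH (500 uM addition) then DTNB (15 mM addition). Kinetic TNB absorbance, 405 nm filter. Four-parameter Hill fit across titration.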
% is scaled to controls: 0 for no effect and ±100 for the full control effect; potency is read from the fitted curve at half-maximal effect; tags tell the direction and shape of the fitted curve.

Row | SMILES | activity change, negative = inhibition | Potency
1 | CC(CCc1ccccc1)NC(=O)CCC(=O)N1CCC(C(=O)O)CC1 (stereo not given) | inactive: -2.14% | 
2 | COC(=O)c1scc(S(=O)(=O)c2ccccc2)c1N |  | inconclusive [inhibitor, single point]
3 | Cc1ccnc(NC(=S)NC(=O)c2cccs2)c1 | inactive: 4.5% | 
4 | COc1ccc(Cl)cc1N1Cc2ccccc2C1 |  | active: 44.7 µM
5 | CC(=NCCN1CCCCC1)c1c(O)n(-c2ccccc2)c(=O)[nH]c1=O |  | inconclusive [inhibitor, partial curve]
6 | Cc1ccc(C(=O)C=CNNC(=O)c2ccccc2)cc1 |  | active: 39.8 µM
7 | CC(=O)c1c(C)oc2c(Br)cc(NS(=O)(=O)c3ccc(Br)cc3)cc12 |  | active: 5.62 µM
8 | CC(=O)c1cccc(NC(=O)/C(=C/c2ccncc2)NC(=O)c2ccccc2)c1 | inactive: -8.14% | 
9 | O=C(/C=C/c1ccc([N+](=O)[O-])cc1)NCc1cccs1 | inactive: 4.11% | 
10 | Cc1cc(C)nc(SCNC(=O)c2ccc(Cl)cc2)n1 |  | inconclusive [inhibitor, partial curve]
11 | CCOC(=O)c1ccc2ncc(C(=O)OCC)c(NCc3ccco3)c2c1 | inactive: -28.6% [at 11.4 µM] | 
12 | Cc1cc2ccccc2n1CCNC(=O)c1cc(C(F)(F)F)cc(C(F)(F)F)c1 | inactive: 8.77% | 
13 | O=C1NCCC/C1=N\Nc1ccc(Br)cc1 | inactive: -27.9% | 
14 | CCc1ccc(N2C(=O)NC(=O)/C(=C\c3cccn3CCOc3ccc(C(C)C)cc3)C2=O)cc1 |  | inconclusive [inhibitor, full curve]
15 | Cc1cccc(N2CCN(Cc3ccc([N+](=O)[O-])o3)CC2)c1C |  | inconclusive [inhibitor, full curve]
16 | O=C(Nc1ccc(S(=O)(=O)N2CCCCC2)cc1)C1CCCO1 (stereo not given) |  | inconclusive [inhibitor, partial curve]
17 | CCn1c(SC/C=C/c2ccccc2)nnc1-c1cccs1 |  | inconclusive [inhibitor, partial curve]
18 | Clc1ccc(CN2CCCCCCC2)cc1Cl | inactive: -8.47% | 
19 | Cc1ccc(C(=O)N2CCCCCC2)cc1S(=O)(=O)N1CCOCC1 | inactive: 14.4% | 
20 | CCCSc1nnc(CSc2nc(C)cc(C)n2)n1C | inactive: 0.989% | 
21 | O=c1[nH]c(=O)n(Cc2ccccc2)c(O)c1/C=C1\C=Nc2ccccc21 |  | inconclusive [inhibitor, full curve]
22 | COc1ccc(CCNC(=O)c2ccc3c(=O)n(Cc4ccco4)c(=S)[nH]c3c2)cc1OC |  | inconclusive [inhibitor, partial curve]
23 | CN1C2CCC1CC(=NO)C2 |  | inconclusive [inhibitor, single point]
24 | NC(=O)c1c(NC(=O)c2ccco2)sc2c1CCC2 |  | inconclusive [inhibitor, partial curve]
25 | O=C(c1ncn(Cc2ccccc2)c1C(=O)N1CCc2ccccc2C1)N1CCc2ccccc2C1 |  | inconclusive [inhibitor, partial curve]

Row | SMILES | activity change, negative = inhibition | Potency
26 | CCCn1c(SCC(=O)N2CCc3ccccc32)nnc1-c1ccco1 | inactive: -3.22% | 
27 | NNC(=O)c1cc2cc3ccccc3nc2s1 |  | inconclusive [inhibitor, single point]
28 | CCc1cc2c(=O)c(-c3ccc4c(c3)OCCO4)coc2cc1OC(=O)c1ccco1 | inactive: -9.75% | 
29 | COc1cccc(C(=O)N2CCN(CCc3ccncc3)CC2)c1 |  | inconclusive [inhibitor, partial curve]
30 | NC(=O)C1CCCN(Cc2c(C(=O)N3CCc4ccccc4C3)nc3ccc(Cl)cn23)C1 (stereo not given) |  | inconclusive [inhibitor, full curve, poor fit]
31 | CCOc1ccccc1-n1c(SCC(N)=O)nnc1-c1ccco1 |  | inconclusive [inhibitor, partial curve]
32 | CCc1c(C(=O)Nc2ccccc2)c(C)[nH]c(=S)c1C#N |  | inconclusive [inhibitor, partial curve]
33 | Cc1ccc(C(=O)Nc2nnc(CC(=O)N/N=C/c3ccc(O)c(O)c3)s2)cc1 |  | active: 44.7 µM
34 | COc1ccc(N2CCN(C(=O)CN3C(=O)NC(c4ccc(OC)cc4)(c4ccc(OC)cc4)C3=O)CC2)cc1 |  | inconclusive [inhibitor, single point]
35 | CC1(C)CC(=O)C(C=NCCN2CCN(C(=O)CCl)CC2)=C(O)C1 |  | active: 17.8 µM
36 | COc1ccc(S(=O)(=O)c2cn(CC(=O)Nc3cc(C)ccc3C)c3ccccc3c2=O)cc1 | inactive: -1.12% | 
37 | Cc1occc1C(=O)Nc1ccc([N+](=O)[O-])cc1Br | inactive: -0.121% | 
38 | CN(C)C(=O)NC(Nc1cccc([N+](=O)[O-])c1)C(Cl)(Cl)Cl (stereo not given) |  | active: 20 µM
39 | O=C1C2CCCN2C(c2ccc(F)cc2)N1c1ccc(Cl)cc1 (stereo not given) | inactive: -5.09% | 
40 | CNC(=S)N/N=C/c1c(C)cccc1Cl | inactive: 0.413% | 
41 | O=C(NCSc1ccnc(SCNC(=O)c2ccccc2)n1)c1ccccc1 |  | inconclusive [inhibitor, full curve]
42 | O=C(CCC(=O)c1cccs1)NNC(=O)c1ccccc1Cl |  | inconclusive [inhibitor, partial curve]
43 | Brc1ccc(-c2nnc(-c3ccc4c(c3)OCO4)o2)o1 | inactive: 0.308% | 
44 | CCOc1cc(-c2noc(N)c2C#N)cc(OCC)c1OCC |  | inconclusive [inhibitor, single point]
45 | COCCCNC(=O)/C(C#N)=C/c1c(N2CCN(c3ccccc3)CC2)nc2c(C)cccn2c1=O |  | active: 35.5 µM
46 | CCn1ncc(Br)c1C(=O)N(C)C12CC3CC(CC(C3)C1)C2 |  | inconclusive [inhibitor, full curve, poor fit]
47 | O=C(O)/C=C/C(=O)c1c(-c2ccccc2)[nH]c2ccccc12 |  | active: 25.1 µM
48 | Cc1cccnc1NC(=S)NCCc1ccccc1 |  | inconclusive [inhibitor, partial curve]
49 | CCc1cc(=O)oc2cc(C)c(CN3CCCC3)c(O)c12 |  | inconclusive [inhibitor, partial curve]
50 | O=C(CN1C(=O)c2ccccc2S1(=O)=O)NCCSCc1ccco1 |  | inconclusive [inhibitor, partial curve, poor fit]

Row | SMILES | activity change, negative = inhibition | Potency
51 | COc1ccc2ccccc2c1C1CC(=O)N2CN(C)CSC2=C1C#N (stereo not given) |  | active: 10 µM
52 | CC(=O)N1c2nc(-c3ccco3)nn2C2(CCCCC2)[C@@H]2CCCC[C@@H]21 |  | inconclusive [inhibitor, partial curve]
53 | CC1CCCC(N2CCN(C(=O)c3ccc([N+](=O)[O-])cc3)CC2)C1 (stereo not given) |  | inconclusive [inhibitor, full curve, poor fit]
54 | CC(=O)Nc1ccc(-c2nn[nH]n2)cc1 | inactive: 13.1% | 
55 | COc1ccccc1N1CCN(C2=CC(=O)CCC2)CC1 |  | inconclusive [inhibitor, full curve]
56 | N#CC1=C(N)Oc2c(oc(CO)cc2=O)C1c1ccccc1[N+](=O)[O-] (stereo not given) |  | inconclusive [inhibitor, partial curve]
57 | CCCCC(c1nnnn1CCOC)N1CCN(Cc2ccccc2)CC1 (stereo not given) |  | inconclusive [inhibitor, partial curve]
58 | COc1ccccc1OCc1ccc(C(=O)N2CCN(C(=O)c3ccco3)CC2)cc1 |  | inconclusive [inhibitor, single point]
59 | Cc1cc(=O)n(CC(=O)O)c2ccccc12 | inactive: 13.2% | 
60 | CCOc1cc(/C=C2\N=C3CCCCCN3C2=O)ccc1O |  | inconclusive [inhibitor, partial curve]
61 | O=C(/C=C/c1ccco1)NC(=S)Nc1cc(C(F)(F)F)ccc1N1CCOCC1 |  | inconclusive [inhibitor, partial curve]
62 | COc1ccc(-c2cc(C(=O)Nc3ccccc3)on2)cc1 | inactive: 7.44% | 
63 | Clc1ccc(CSc2nnc([C@@H]3CCCN3)o2)cc1Cl |  | inconclusive [inhibitor, full curve]
64 | NC(=O)COC(=O)c1ccc2noc(-c3ccccc3)c2c1 |  | inconclusive [inhibitor, partial curve]
65 | O=C(COc1cccc2cccnc12)N/N=C1\SCC(=O)N1Cc1ccco1 |  | inconclusive [inhibitor, partial curve]
66 | CCOC(=O)c1c(NC(=S)Nc2ccccc2)sc2c1CC(C)(C)SC2 |  | inconclusive [inhibitor, partial curve]
67 | COc1ccc(Br)cc1C1CC(=O)N2CN(C)CSC2=C1C#N (stereo not given) |  | inconclusive [inhibitor, partial curve]
68 | COc1ccc(/C=C(\NC(=O)c2ccc(C)cc2)C(=O)N2CCCCC2)cc1 |  | inconclusive [inhibitor, single point]
69 | Cc1nc(NCCc2ccc(S(N)(=O)=O)cc2)c2c(C)c(C)sc2n1 | inactive: -4.26% | 
70 | CC(NC(=O)c1cccc(OC2CCN(C3CCN(C)CC3)CC2)c1)c1ccccc1 (stereo not given) |  | active: 14.1 µM
71 | CCCCC/C=C/C1=CC(=O)C[C@H](c2ccc(OC)c(OC)c2)C1 |  | inconclusive [inhibitor, partial curve]
72 | COc1ccc(Cl)cc1NC(=O)CCCn1c(C)c2cnn(-c3ccccc3)c(=O)c2c1C |  | inconclusive [inhibitor, partial curve]
73 | CCOC(=O)C(C)Sc1nc(-c2ccccn2)ncc1OC (stereo not given) | inactive: 4.23% | 
74 | COc1cc2cc(CN(CCN3CCCC3)C(=O)Nc3ccccc3Cl)c(=O)[nH]c2cc1OC |  | inconclusive [inhibitor, partial curve]
75 | CCn1c(=O)cc(SCC(=O)N(C)Cc2ccccc2)c2ccccc21 | inactive: 0% | 
